Measurements: publication PMC4336329 (PLoS ONE, 2015)
Hit rate of the full screen: of about 310,000 compounds, about 2,200 (0.71%) showed an effect of 50% or more. Effects have a minus sign here. The list shows a part of the results.

target: human ether-à-go-go-related gene (hERG) potassium channel (human, UniProt Q12809); assay: primary screen, population patch clamp on CHO cells stably expressing hERG
Sequence (Q12809 whole entry, looked up): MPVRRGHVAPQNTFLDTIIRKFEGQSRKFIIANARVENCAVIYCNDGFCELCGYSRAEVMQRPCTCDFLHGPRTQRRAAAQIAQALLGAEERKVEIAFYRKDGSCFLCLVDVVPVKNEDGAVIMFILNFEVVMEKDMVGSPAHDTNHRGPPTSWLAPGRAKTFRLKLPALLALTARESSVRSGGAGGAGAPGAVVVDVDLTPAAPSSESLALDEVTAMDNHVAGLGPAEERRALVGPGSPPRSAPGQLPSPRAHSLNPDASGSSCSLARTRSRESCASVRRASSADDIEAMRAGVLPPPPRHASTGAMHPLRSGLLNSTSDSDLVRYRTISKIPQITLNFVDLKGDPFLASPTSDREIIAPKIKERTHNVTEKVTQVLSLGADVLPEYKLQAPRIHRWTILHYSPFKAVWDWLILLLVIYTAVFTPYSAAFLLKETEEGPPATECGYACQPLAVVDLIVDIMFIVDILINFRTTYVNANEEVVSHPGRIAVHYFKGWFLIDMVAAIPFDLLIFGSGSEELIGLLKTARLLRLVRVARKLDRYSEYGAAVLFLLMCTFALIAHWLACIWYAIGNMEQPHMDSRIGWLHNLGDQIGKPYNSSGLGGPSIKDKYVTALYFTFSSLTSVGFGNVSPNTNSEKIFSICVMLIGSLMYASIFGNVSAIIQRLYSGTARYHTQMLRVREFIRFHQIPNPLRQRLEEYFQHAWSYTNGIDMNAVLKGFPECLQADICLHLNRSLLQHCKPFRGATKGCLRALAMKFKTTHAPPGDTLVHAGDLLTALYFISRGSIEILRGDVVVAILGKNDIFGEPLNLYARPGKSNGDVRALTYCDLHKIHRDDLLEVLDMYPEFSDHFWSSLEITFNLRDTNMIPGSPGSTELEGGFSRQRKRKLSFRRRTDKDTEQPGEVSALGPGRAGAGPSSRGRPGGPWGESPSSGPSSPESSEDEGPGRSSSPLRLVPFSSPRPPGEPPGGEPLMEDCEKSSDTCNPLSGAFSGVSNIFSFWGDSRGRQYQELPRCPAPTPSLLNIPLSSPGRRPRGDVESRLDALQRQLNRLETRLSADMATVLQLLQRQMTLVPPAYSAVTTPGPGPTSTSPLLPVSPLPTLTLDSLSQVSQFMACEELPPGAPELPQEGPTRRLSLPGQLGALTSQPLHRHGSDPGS

| Structure (SMILES) | hERG current change (%, negative = inhibition) at 1uM |
| --- | --- |
| COc1ccc2cc(C(=O)NCc3ccccc3)c(=O)oc2c1 | 16.1% |
| COC(=O)c1ccc(OC)c(-c2c(OC)cc(OC)cc2OC)c1 | 7.38% |
| CCOC(=O)c1c(C=O)c2ccccc2n1CC | 8.61% |
| Cc1ccc(C(=O)N(C)c2ccc(OCC(=O)N3c4ccc(C)cc4C4CN(C)CCC43)cc2)cc1.Cl (centres unmarked) | 0.0382% |
| O=C(c1cc(S(=O)(=O)N2CCCCC2)c(Cl)cc1N1CCOCC1)N1CCOCC1 | 2.03% |
| COc1ccccc1/C=C/C=N/n1c(-c2ccccc2)n[nH]c1=S | 1.14% |
| CSc1ccc(S(=O)(=O)N2CCC(C(=O)NCc3ccccn3)CC2)cc1 | 12.3% |
| Cc1ccc(C)c(NC(=O)CN(C)C(=O)CCN2C(=O)c3ccccc3C2=O)c1 | 7.88% |
| CCOC(=O)/C=C1\SCC(=O)N1CC(=O)NCc1ccc(OC)c(OC)c1 | 13.3% |
| O=C(CN1CCN(S(=O)(=O)N2CCCCC2)CC1)Nc1ccc(Br)cc1 | 2.87% |
| CC1(C)C2CCC1(CS(=O)(=O)N1CCC(C(=O)O)CC1)C(=O)C2 (centres unmarked) | 7.67% |
| Cc1ccc(C)c(N2N=C(C(=O)O)CCC2=O)c1 | 4.02% |
| COc1cc(O)c(C(CCN2CCCC2)c2ccc(N(C)C)cc2)c(OC)c1 (centres unmarked) | 5.8% |
| COCC1CCCCN1C(=O)C1CCN(c2nc(-c3ccccc3)nc3c2CCC3)CC1 (centres unmarked) | 6.13% |
| CC1Cc2cc(S(=O)(=O)NCCC(=O)NCc3ccc(F)cc3)ccc2N1C(=O)C1CC1 (centres unmarked) | 7.18% |
| CC(C)NCCCCOc1ccc(Br)cc1Cl.O=C(O)C(=O)O | -16.1% |
| COc1ccc(N(CN2C(=O)c3ccccc3C2=O)C(=O)COc2ccc(Cl)cc2Cl)cc1 | 19.7% |
| CC(C)CN(C(=O)CCc1ccccc1Cl)c1c(N)n(Cc2ccccc2)c(=O)[nH]c1=O | 4.48% |
| CCNC(=S)N(CCN(C)C)Cc1cc2cc3c(cc2[nH]c1=O)OCO3 | 11.7% |

| Structure (SMILES) | hERG current change (%, negative = inhibition) at 1uM |
| --- | --- |
| O/N=C/c1cc(Br)ccc1OCc1cccc(F)c1 | 7.33% |
| Cc1cccc(NC(=O)Nc2ccccc2[N+](=O)[O-])n1 | 10% |
| COc1cc(/C=N/NC(=O)C2=NNC(=O)C2C)ccc1O (centres unmarked) | 5.74% |
| CCOc1ccccc1N(CC(=O)NC1CCCC1)S(=O)(=O)c1ccc(C)cc1 | -1.59% |
| O=C(COc1coc(CN2CCN(c3ccc(F)cc3)CC2)cc1=O)Nc1ccccc1 | 10.6% |
| CS(=O)(=O)N(CC(=O)N1CCCCCC1)Cc1ccc(Cl)cc1 | 5.17% |
| CCCCCP(=O)(O)c1ccccc1 | 9.45% |
| Cc1n[nH]c(=S)n1-c1ccc(Cl)cc1 | 12.3% |
| CC(=O)c1cccc(NC(=S)NC(=O)c2ccc(Br)cc2)c1 | 6.93% |
| Cc1cc(C)c(S(=O)(=O)N2CCN(C(=O)c3cc(=O)[nH]c4ccccc34)CC2)c(C)c1 | -14.6% |
| O=C(CCCN1C(=O)/C(=C/c2cccs2)SC1=S)NNC(=O)c1cccnc1 | 14.9% |
| O=C(CCN1CCCCC1)NNC(=S)NC(=O)c1ccc(Br)cc1 | 6.71% |
| Cc1nn(C)c(C)c1C1Nc2ccccc2C(=O)N1O (centres unmarked) | 9.61% |
| O=C(NCCC1=CCCCC1)C1CCCN(S(=O)(=O)c2ccccc2)C1 (centres unmarked) | 7.8% |
| Cc1nc(N)sc1C(=O)Nc1ccccc1.Cl | 10.1% |
| COc1ccc(NC(=O)CSc2nc3ccccc3c(=O)n2-c2ccc3c(c2)OCO3)c(OC)c1 | 14.3% |
| Cc1cccc(-c2nnnn2-c2cccc(C)c2)c1 | 5.74% |
| CCCCOc1ccc(C(=O)NC(=S)Nc2ccc(CN3CCOCC3)cc2)cc1 | 2.01% |
| O=C(C1Cc2ccccc2CN1S(=O)(=O)c1ccc(F)cc1)N1CCOCC1 (centres unmarked) | 0.885% |

| Structure (SMILES) | hERG current change (%, negative = inhibition) at 1uM |
| --- | --- |
| CCCCc1nc(C(N)=O)c2[nH]c(=O)n(-c3ccc(OC)c(OC)c3)c2n1 | 5.64% |
| Cc1ccccc1C(=O)Nc1cccc(N)c1 | 9.77% |
| CCOC(=O)C1(C)NC(c2ccc(OC)cc2OC)C2C(=O)N(c3cccc(OC)c3)C(=O)C21 (centres unmarked) | 13.8% |
| CCOC(=O)N1CCN(C(=O)c2ccc(CS(=O)(=O)c3c(Cl)cccc3Cl)o2)CC1 | -2.28% |
| CC1(C)CC(=O)C2=C(C1)OC1OC(=O)CC21C (centres unmarked) | 10.8% |
| O=c1cc(Nc2cccc(Br)c2)[nH]c(=O)[nH]1 | 10.1% |
| COc1ccc(C(=O)OCc2c(-c3cccc(OC)c3)ncc3ccccc23)cc1 | 12.1% |
| CCN1CCN(CC(O)COc2ccc3c(C)cc(=O)oc3c2)CC1.Cl (centres unmarked) | 7.75% |
| COc1ccc(-n2nc([N+](=O)[O-])c(=NCCc3ccc(C)cc3)n2O)cc1 | 1.78% |
| O=C(NCc1ccccn1)Nc1ccccc1Cl | 12.8% |
| CCOC(=O)c1ccc(NC(=S)N(CCCN2CCCC(C)C2)Cc2cccs2)cc1 (centres unmarked) | -5.72% |
| CCCCCCOc1ccc(CN2CCN(CC)CC2)cc1 | -10.3% |
| Nc1nnc(CC(=O)N/N=C/c2cc([N+](=O)[O-])cc(Br)c2O)s1 | 3.19% |
| Cc1nonc1CC(=O)N1CCCC(C(=O)c2cccc(C(F)(F)F)c2)C1 (centres unmarked) | -20.6% |
| S=C(Nc1cc(Cl)cc(Cl)c1)N1CCCC1 | 7.89% |
| N#C/C(=C\c1ccc(N2CCOCC2)c([N+](=O)[O-])c1)c1nc2ccccc2[nH]1 | -19.7% |
| O=C(c1ccco1)[C@@H]1[C@@H]2C(=O)N(c3ccccc3)C(=O)[C@@H]2C2c3ccccc3C=CN21 (some centres unmarked) | 8.19% |
| CC(=O)NC(C(=O)N1CCC(c2nc3ccccc3s2)CC1)C(C)C (centres unmarked) | 8.96% |
